# From the supplement of paper PMC8728848
# This is one part of the list.
# Tests used:
# Assay in all cases: glycan array binding signal (z-score within array); higher = stronger binding
# Conditions in all cases: glycan notation: IUPAC condensed, linker removed
# [1] = target: Neu5Ac(a2-6)Gal(b1-4)GlcNAc(b1-6)GalNAc
# Method in brief: (§1)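 Glycan array data came from 3228 arrays in the Consortium for Functional Glycomics database, and only arrays with an available protein sequence were kept. Glycan names were put into IUPAC-condensed notation, and columns mapping to the same glycan were averaged. The binding signal is a within-array Z-score, averaged across arrays of one protein sequence run at different concentrations or buffers and across linkers. A negative Z-score can be read as non-binding.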
# [2] = target: Neu5Ac(a2-6)Gal(b1-4)GlcNAc(b1-6)[Gal(b1-3)GlcNAc(b1-3)]Gal(b1-4)Glc
# Method in brief: as §1
# [3] = target: Neu5Ac(a2-6)Gal(b1-4)GlcNAc6S
# Method in brief: as §1
# Neu5Ac(a2-6)GalNAc = target: Neu5Ac(a2-6)GalNAc
# Method in brief: as §1
# [4] = target: Neu5Ac(a2-6)GalNAc(b1-4)GlcNAc
# Method in brief: as §1
# [5] = target: Neu5Ac(a2-6)GalNAc(b1-4)GlcNAc6S
# Method in brief: as §1
# [6] = target: Neu5Ac(a2-6)GlcNAc(b1-4)GlcNAc
# Method in brief: as §1
# [7] = target: Neu5Ac(a2-6)GlcNAc(b1-4)GlcNAc(b1-4)GlcNAc
# Method in brief: as §1
# Neu5Ac(a2-8)Neu5Ac = target: Neu5Ac(a2-8)Neu5Ac
# Method in brief: as §1
# [8] = target: Neu5Ac(a2-8)Neu5Ac(a2-3)Gal(b1-3)GalNAc(b1-4)[Neu5Ac(a2-8)Neu5Ac(a2-3)]Gal(b1-4)Glc
# Method in brief: as §1
# [9] = target: Neu5Ac(a2-8)Neu5Ac(a2-3)Gal(b1-4)Glc
# Method in brief: as §1
# [10] = target: Neu5Ac(a2-8)Neu5Ac(a2-3)[Gal(b1-3)GalNAc(b1-4)]Gal(b1-4)Glc
# Method in brief: as §1
# [11] = target: Neu5Ac(a2-8)Neu5Ac(a2-3)[GalNAc(b1-4)]Gal(b1-4)Glc
# Method in brief: as §1
# [12] = target: Neu5Ac(a2-8)Neu5Ac(a2-8)Neu5Ac
# Method in brief: as §1
# [13] = target: Neu5Ac(a2-8)Neu5Ac(a2-8)Neu5Ac(a2-3)Gal(b1-4)Glc
# Method in brief: as §1
# [14] = target: Neu5Ac(a2-8)Neu5Ac(a2-8)Neu5Ac(a2-3)[GalNAc(b1-4)]Gal(b1-4)Glc
# Method in brief: as §1
# [15] = target: Neu5Ac(a2-8)Neu5Ac(a2-8)Neu5Ac(a2-8)Neu5Ac(a2-3)[GalNAc(b1-4)]Gal(b1-4)Glc
# Method in brief: as §1
# Neu5Ac(b1-6)GalNAc = target: Neu5Ac(b1-6)GalNAc
# Method in brief: as §1
# [16] = target: Neu5Ac(b2-6)Gal(b1-4)GlcNAc
# Method in brief: as §1
# Neu5Ac(b2-6)GalNAc = target: Neu5Ac(b2-6)GalNAc
# Method in brief: as §1
# [17] = target: Neu5Ac9Ac(a2-3)Gal(b1-3)GlcNAc
# Method in brief: as §1
# [18] = target: Neu5Ac9Ac(a2-3)Gal(b1-4)GlcNAc
# Method in brief: as §1
# [19] = target: Neu5Ac9Ac(a2-6)Gal(b1-4)GlcNAc
# Method in brief: as §1
# [20] = target: Neu5Gc(a2-3)Gal(b1-3)GlcNAc
# Method in brief: as §1
# [21] = target: Neu5Gc(a2-3)Gal(b1-3)[Fuc(a1-4)]GlcNAc
# Method in brief: as §1
# Neu5Gc(a2-3)Gal(b1-4)Glc = target: Neu5Gc(a2-3)Gal(b1-4)Glc
# Method in brief: as §1
# [22] = target: Neu5Gc(a2-3)Gal(b1-4)GlcNAc
# Method in brief: as §1
# [23] = target: Neu5Gc(a2-3)Gal(b1-4)[Fuc(a1-3)]GlcNAc
# Method in brief: as §1
# [24] = target: Neu5Gc(a2-6)Gal(b1-4)GlcNAc
# Method in brief: as §1
# Neu5Gc(a2-6)GalNAc = target: Neu5Gc(a2-6)GalNAc
# Method in brief: as §1
# [25] = target: Neu5Gc(b2-6)Gal(b1-4)GlcNAc
# Method in brief: as §1
binder,measurement,setting,value
"StcE (Escherichia coli), O82882.2 (protein) ADNNSAIYFNTSQPINDLQGSLAAEVKFAQSQILPAHPKEGDSQPHLTSLRKSLLLVRPVKADDKTPVQVEARDDNNKILGTLTLYPPSSLPDTIYHLDGVPEGGIDFTPHNGTKKIINTVAEVNKLSDASGSSIHSHLTNNALVEIHTANGRWVRDIYLPQGPDLEGKMVRFVSSAGYSSTVFYGDRKVTLSVGNTLLFKYVNGQWFRSGELENNRITYAQHIWSAELPAHWIVPGLNLVIKQGNLSGRLNDIKIGAPGELLLHTIDIGMLTTPRDRFDFAKDKEAHREYFQTIPVSRMIVNNYAPLHLKEVMLPTGELLTDMDPGNGGWHSGTMRQRIGKELVSHGIDNANYGLNSTAGLGENSHPYVVAQLAAHNSRGNYANGIQVHGGSGGGGIVTLDSTLGNEFSHEVGHNYGLGHYVDGFKGSVHRSAENNNSTWGWDGDKKRFIPNFYPSQTNEKSCLNNQCQEPFDGHKFGFDAMAGGSPFSAANRFTMYTPNSSAIIQRFFENKAVFDSRSSTGFSKWNADTQEMEPYEHTIDRAEQITASVNELSESKMAELMAEYAVVKVHMWNGNWTRNIYIPTASADNRGSILTINHEAGYNSYLFINGDEKVVSQGYKKSFVSDGQFWKERDVVDTREARKPEQFGVPVTTLVGYYDPEGTLSSYIYPAMYGAYGFTYSDDSQNLSDNDCQLQVDTKEGQLRFRLANHRANNTVMNKFHINVPTESQPTQATLVCNNKILDTKSLTPAPEGLTYTVNGQALPAKENEGCIVSVNSGKRYCLPVGQRSGYSLPDWIVGQEVYVDSGAKAKVLLSDWDNLSYNRIGEFVGNVNPADMKKVKAWNGQYLDFSKPRSMRVVYK",glycan array binding signal (z-score),[1],0.003
same,glycan array binding signal (z-score),[2],-0.132
same,glycan array binding signal (z-score),[3],-0.352
same,glycan array binding signal (z-score),Neu5Ac(a2-6)GalNAc,-0.384
same,glycan array binding signal (z-score),[4],-0.163
same,glycan array binding signal (z-score),[5],-0.127
same,glycan array binding signal (z-score),[6],-0.156
same,glycan array binding signal (z-score),[7],-0.126
same,glycan array binding signal (z-score),Neu5Ac(a2-8)Neu5Ac,-0.092
same,glycan array binding signal (z-score),[8],-0.162
same,glycan array binding signal (z-score),[9],-0.128
same,glycan array binding signal (z-score),[10],-0.174
same,glycan array binding signal (z-score),[11],-0.293
same,glycan array binding signal (z-score),[12],-0.095
same,glycan array binding signal (z-score),[13],0.545
same,glycan array binding signal (z-score),[14],-0.213
same,glycan array binding signal (z-score),[15],-0.155
same,glycan array binding signal (z-score),Neu5Ac(b1-6)GalNAc,-0.711
same,glycan array binding signal (z-score),[16],-0.153
same,glycan array binding signal (z-score),Neu5Ac(b2-6)GalNAc,-0.105
same,glycan array binding signal (z-score),[17],-0.193
same,glycan array binding signal (z-score),[18],-0.161
same,glycan array binding signal (z-score),[19],-0.277
same,glycan array binding signal (z-score),[20],-0.187
same,glycan array binding signal (z-score),[21],-0.154
same,glycan array binding signal (z-score),Neu5Gc(a2-3)Gal(b1-4)Glc,0.108
same,glycan array binding signal (z-score),[22],-0.113
same,glycan array binding signal (z-score),[23],-0.569
same,glycan array binding signal (z-score),[24],-0.504
same,glycan array binding signal (z-score),Neu5Gc(a2-6)GalNAc,-0.066
same,glycan array binding signal (z-score),[25],-0.147
